Measurements: the BET-seq Pho4 binding data (Le et al. 2018)
The list shows a part of the results. The energies were worked out here from pooled read counts, against the library average; single values are noisy.

Molecular target: T1, Pho4 (S. cerevisiae) (UniProt P07270)
T1 sequence: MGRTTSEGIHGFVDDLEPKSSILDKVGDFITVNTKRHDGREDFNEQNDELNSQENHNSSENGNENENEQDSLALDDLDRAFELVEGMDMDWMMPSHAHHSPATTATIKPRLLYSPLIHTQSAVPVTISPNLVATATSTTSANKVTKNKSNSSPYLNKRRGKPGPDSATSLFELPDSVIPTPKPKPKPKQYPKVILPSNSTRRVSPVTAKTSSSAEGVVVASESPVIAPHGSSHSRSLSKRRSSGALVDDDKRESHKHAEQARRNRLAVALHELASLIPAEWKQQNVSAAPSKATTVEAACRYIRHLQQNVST
Assay: relative binding free energy (BET-seq); higher = weaker binding
Conditions: reference: library average

Sequence	relative binding free energy
TCAGGCACGTGTTGTA	-0.16 kcal/mol
TTTATCACGTGTCTGT	0 kcal/mol
GATGTCACGTGAGGAT	0.28 kcal/mol
TGAGCCACGTGTCGGG	0.03 kcal/mol
GGTATCACGTGAAGGG	0.4 kcal/mol
GGTTCCACGTGATAGT	0.14 kcal/mol
TGATGCACGTGGAAAG	0.18 kcal/mol
TGGCACACGTGTGAGA	0.16 kcal/mol
CACGACACGTGTGGGG	0.11 kcal/mol
ATATTCACGTGAAATG	0.26 kcal/mol
TGGAACACGTGGACGT	0.17 kcal/mol
TGGGGCACGTGCATGA	-0.27 kcal/mol
GAGGTCACGTGGAATA	0.26 kcal/mol
ATGCTCACGTGGAGTG	0.15 kcal/mol
GTTTGCACGTGAAGGA	0.28 kcal/mol
AGGTACACGTGTAACG	0.23 kcal/mol
ATGGTCACGTGATATG	0.3 kcal/mol
TAATTCACGTGAGGGA	0.33 kcal/mol
TTATACACGTGGACGT	0.13 kcal/mol
AAGATCACGTGGTTGT	0.21 kcal/mol
GTTCTCACGTGATTTG	0.29 kcal/mol
ACGGGCACGTGGATAG	-0.16 kcal/mol
GATAACACGTGTGGAT	0.11 kcal/mol
ATGATCACGTGTAGTA	0.13 kcal/mol
TGTTGCACGTGTGGGC	0.09 kcal/mol

Sequence	relative binding free energy
ACGGGCACGTGTAGTG	-0.01 kcal/mol
GGAGGCACGTGTCATG	-0.16 kcal/mol
CAGAGCACGTGTTATG	0.06 kcal/mol
GGGGACACGTGTTCGA	0.14 kcal/mol
CGTCACACGTGTGTGT	-0.1 kcal/mol
GGTGTCACGTGTCTCA	0.31 kcal/mol
AGGATCACGTGATGAG	0.32 kcal/mol
ATTCTCACGTGGGTGT	0.14 kcal/mol
AGTTTCACGTGTGGCT	0.34 kcal/mol
AAACGCACGTGGTGGT	-0.14 kcal/mol
TAGTGCACGTGCGTGT	-0.03 kcal/mol
TGTAACACGTGGATGG	-0.03 kcal/mol
ATGAACACGTGTGAGT	0.12 kcal/mol
AAGTTCACGTGATTAT	0.37 kcal/mol
TGTTGCACGTGGGTTA	-0.17 kcal/mol
GTTGTCACGTGCGGCA	0.07 kcal/mol
TTGAGCACGTGCGTAG	-0.18 kcal/mol
TAATTCACGTGATGGT	0.35 kcal/mol
TGCAGCACGTGGGAGG	-0.2 kcal/mol
GGCTTCACGTGTTTAG	0.18 kcal/mol
AAATGCACGTGATAGG	-0.02 kcal/mol
TCACGCACGTGAGGGT	0.16 kcal/mol
AAGTTCACGTGTATTT	0.44 kcal/mol
TTGTACACGTGGATGG	0 kcal/mol
AGCGGCACGTGCGAGG	0.05 kcal/mol

Sequence	relative binding free energy
AATGTCACGTGAATTG	0.13 kcal/mol
GTGTGCACGTGTGAGC	0.07 kcal/mol
GTACTCACGTGAAGGT	0.32 kcal/mol
GTTCACACGTGATTAG	0.38 kcal/mol
GTGGTCACGTGCATAG	0.05 kcal/mol
AGATTCACGTGTTTGT	0.25 kcal/mol
TGGGACACGTGTCGGA	0.05 kcal/mol
AATTTCACGTGCAGTT	0.2 kcal/mol
GGTTGCACGTGAGGGC	0.31 kcal/mol
GACAGCACGTGTTAGT	0.12 kcal/mol
AGTACCACGTGGGGAG	-0.21 kcal/mol
GATAACACGTGGTAGG	0.05 kcal/mol
TAGTGCACGTGGCTGG	0 kcal/mol
GGGATCACGTGGTTGT	0.15 kcal/mol
GGTCGCACGTGAAAGG	0.09 kcal/mol
CGTGTCACGTGGATAT	0.1 kcal/mol
GTATCCACGTGGGTGA	0.01 kcal/mol
CTTTACACGTGAGAGG	0.39 kcal/mol
ACAGTCACGTGTTATG	0.01 kcal/mol
ATATACACGTGGTTTG	-0.11 kcal/mol
GGGTCCACGTGGTAGA	-0.03 kcal/mol
GAGGACACGTGACGGG	0.14 kcal/mol
TGCTGCACGTGATGTG	0.06 kcal/mol
